Relative growth recovery data for 63 compounds are collected here from the supplement of paper PMC12340641.

Whole data set: some 1,000 compounds, median “relative growth recovery (pomalidomide 10 uM = 100%, DMSO = 0%)” near -1.6, cut for the highest 2% near 21. The list shows a part of the results.

For this test, the system named is HEK293FT dCK*-IKZF1. Kind of test: relative growth recovery (pomalidomide 10 uM = 100%, DMSO = 0%); higher = more growth rescue (IKZF1 fusion degradation). The conditions noted are these: compound concentration: 5 uM; AraC concentration: 0.3 uM; overnight pretreatment + 4 days AraC. Here is the method: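 Growth recovery screen of the molecular-glue-like (Specs) library. HEK293FT cells expressing a dCK*-IKZF1 fusion (primary) or dCK* alone (counter) were pretreated overnight with compound at 5 uM, then given 0.3 uM AraC for 4 days. Hoechst nuclei were counted by imaging. Primary: normalised to pomalidomide (100%) and DMSO (0%), mean of 2 replicates. Counter: normalised to no-AraC (100%) and AraC+DMSO (0%), single replicate.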
On to `Cc1cc(C)c2[nH]c3nc(SCC(=O)Nc4ccc(Cl)c([N+](=O)[O-])c4)nnc3c2c1`, for which the relative growth recovery was -13%.

Turning to `O=C(Nc1ccc(S(=O)(=O)Nc2ncccn2)cc1)c1ccco1`, the relative growth recovery was -3.85%.

On to `CC(=O)Oc1ccc(N2C(=O)c3ccc(Oc4cccc(N)c4)cc3C2=O)cc1`, for which the relative growth recovery was -2.16%.

Turning to `COc1ccc(OCC(=O)Nc2ccc(S(=O)(=O)Nc3nc(C)cc(C)n3)cc2)cc1`, the relative growth recovery came out at 2.2%.

As for `CC(C)C(=O)N1CCCC1c1csc(Nc2ccccn2)n1` (stereo not drawn), the relative growth recovery worked out at 1.14%.

Take `Cc1nc(Nc2cccc(C3CCCN3C(=O)COc3ccc(F)cc3F)n2)sc1C` (stereo not drawn): the relative growth recovery was found to be 1.31%.

Turning to `COCC(=O)N1CCOC(c2cccc(Nc3nc(C)cs3)n2)C1` (stereo not drawn), the relative growth recovery is 2.9%.

Consider `O=[N+]([O-])c1ccc(S(=O)(=O)Nc2ccccn2)cc1`, for which the relative growth recovery stood at 3.84%.

Consider `CC(=O)N1CCC(c2csc(Nc3ncccc3C)n2)CC1`, for which the relative growth recovery was determined as 2.94%.

In the case of `O=C(CSc1nnc2c(n1)[nH]c1ccc(F)cc12)Nc1ccc(F)cc1`, the relative growth recovery is 1.55%.

Turning to `Cc1ccc(OCC(=O)Nc2ccc(S(=O)(=O)Nc3ccccn3)cc2)cc1`, the relative growth recovery was -2.1%.

Take `CC(C)c1ccc(OCC(=O)Nc2ccc(S(=O)(=O)Nc3ccccn3)cc2)cc1`: the relative growth recovery is 2.78%.

In the case of `CN(C)CC1(c2cccc(Nc3ncc(-c4ccccc4)s3)n2)CCN(C(=O)C(C)(C)N)CC1`, the relative growth recovery is -17.3%.

Consider `Cc1ccnc(NS(=O)(=O)c2ccc(NC(=O)c3ccccc3C)cc2)n1`, for which the relative growth recovery was -1.84%.

Turning to `Cc1cnc(Nc2cccc(C3CCN(CC(=O)Nc4ccccc4F)CC3)n2)s1`, the relative growth recovery is -9.93%.

As to `Cc1cc(C)nc(NS(=O)(=O)c2ccc(Nc3nc(-c4ccc(Cl)cc4)cs3)cc2)n1`, the relative growth recovery is -0.855%.

Take `O=C(C1CCCCC1)N1CCC(Cc2cccc(Nc3nccs3)n2)CC1`: the relative growth recovery stood at 4.47%.

Take `Cn1nccc1/C=C/C(=O)N1CCC(c2cc3ccccc3c(Nc3nccs3)n2)CC1`: the relative growth recovery was -16.9%.

With `COc1ccc(N2CC(C(=O)Nc3ccc(S(=O)(=O)Nc4nc(C)cc(C)n4)cc3)CC2=O)cc1` (stereo not drawn), the relative growth recovery was -2.15%.

`CCC(Oc1ccccc1)C(=O)Nc1ccc(S(=O)(=O)Nc2ncccn2)cc1` (stereo not drawn): the relative growth recovery is 78.9%.

With `Cc1ccc(C)c2c1[nH]c1nc(SCC(=O)Nc3ccc(Cl)c(C(F)(F)F)c3)nnc12`, the relative growth recovery was -3.91%.

With `COc1ccccc1C(=O)Nc1ccc(S(=O)(=O)Nc2ncccn2)cc1`, the relative growth recovery was found to be 0.915%.

With `O=C(COc1ccc(F)cc1)N1CCC(c2cccc(Nc3nccs3)n2)CC1`, the relative growth recovery worked out at 3.9%.

With `Cc1csc(Nc2cccc(C3CCN(C(=O)c4cccnc4)CC3)n2)n1`, the relative growth recovery amounted to 8.94%.

Turning to `Cc1ccccc1OCCCC(=O)Nc1ccc(S(=O)(=O)Nc2ncccn2)cc1`, the relative growth recovery is -6%.

In the case of `Cc1cc(C)nc(NS(=O)(=O)c2ccc(NC(=S)NC(=O)/C=C/c3ccccc3)cc2)n1`, the relative growth recovery was -1.71%.

In the case of `COc1ccc2[nH]c3nc(SCC(=O)Nc4ccc(F)cc4)nnc3c2c1`, the relative growth recovery is -15.4%.

For `COc1cc(NS(=O)(=O)c2ccc(NC(=O)CCl)cc2)nc(OC)n1`, the relative growth recovery is -5.68%.

With `Cc1csc(Nc2cccc(C3CCCN3C(=O)c3cn4cc(Cl)ccc4n3)n2)n1` (stereo not drawn), the relative growth recovery came out at 11.4%.

In the case of `CCN(CC)C(=O)CN1CCOC(c2cccc(Nc3nc(C)c(C)s3)n2)C1` (stereo not drawn), the relative growth recovery was determined as 8.94%.

Regarding `Cc1csc(Nc2cccc(C3CCCN3C(=O)CCCc3ccc(F)cc3)n2)n1` (stereo not drawn), the relative growth recovery is 0.885%.

Take `Cc1cc(C)nc(NS(=O)(=O)c2ccc(NC(=S)NC(=O)c3ccc(F)c(F)c3)cc2)n1`: the relative growth recovery is -2.13%.

`Cc1ccc(Oc2ccc(N3C(=O)c4ccc(Oc5ccc(N)cc5)cc4C3=O)cc2)cc1C`: the relative growth recovery is -8.53%.

For `COCc1nc2ccccc2n1CC(=O)N1CCOC(c2cccc(Nc3ncc(C)s3)n2)C1` (stereo not drawn), the relative growth recovery is -5.98%.

Take `Cn1nccc1/C=C/C(=O)N1CCCC(c2csc(Nc3ccccn3)n2)C1` (stereo not drawn): the relative growth recovery was found to be 40.9%.

Consider `CCOc1ccccc1C(=O)Nc1ccc(S(=O)(=O)Nc2ccccn2)cc1`, for which the relative growth recovery is 2.5%.

As to `Cc1cc(NS(=O)(=O)c2ccc(NC(=O)C(F)(F)F)cc2)nc(C)n1`, the relative growth recovery was -1.77%.

`O=C(O)CCCNc1cccc2c1C(=O)N(C1CCC(=O)NC1=O)C2=O` (stereo not drawn): the relative growth recovery came out at 3.32%.

`Cc1csc(Nc2cccc(C3CCN(C(=O)CO)CC3)n2)n1`: the relative growth recovery is 3.58%.

For the compound `Cc1cc(C)nc(NS(=O)(=O)c2ccc(NC(=O)c3ccc(F)cc3)cc2)n1`, the relative growth recovery is -0.96%.

`Cc1cnc(Nc2cccc(C3CN(C(=O)C4(c5ccccc5)CC4)CCO3)n2)s1` (stereo not drawn): the relative growth recovery was -8.16%.

For `CC(=O)N1CCCC(c2csc(Nc3ccccn3)n2)C1` (stereo not drawn), the relative growth recovery is -1.67%.

For the compound `Cc1csc(Nc2cccc(C3CCCN3CC(N)=O)n2)n1` (stereo not drawn), the relative growth recovery was 0.325%.

Take `CC(Oc1ccc(F)cc1)C(=O)Nc1ccc(S(=O)(=O)Nc2ncccn2)cc1` (stereo not drawn): the relative growth recovery came out at 5.47%.

For the compound `Cc1cc(C)nc(NS(=O)(=O)c2ccc(NC(=O)C(C)Oc3ccccc3F)cc2)n1` (stereo not drawn), the relative growth recovery was determined as 4.51%.

Turning to `COc1cc(NS(=O)(=O)c2ccc(NC(=O)c3ccc(Br)o3)cc2)nc(OC)n1`, the relative growth recovery came to 2.29%.

Regarding `Cc1cnc(Nc2cccc(C3CN(C(=O)CCc4ccc(N(C)C)cc4)CCO3)n2)s1` (stereo not drawn), the relative growth recovery is 1.53%.

As to `Cc1ccc(/C=C/C(=O)Nc2ccc(S(=O)(=O)Nc3nc(C)cc(C)n3)cc2)cc1`, the relative growth recovery is -0.185%.

As to `CC(C)CC(=O)Nc1ccc(S(=O)(=O)Nc2ncccn2)cc1`, the relative growth recovery is 4.01%.

`Cc1cnc(Nc2cccc(C3CN(C(=O)c4ccccn4)CCO3)n2)s1` (stereo not drawn): the relative growth recovery was -0.11%.

Turning to `CCCc1cnc(Nc2cccc(C3CCCN(C(=O)C4CCCCC4)C3)n2)s1` (stereo not drawn), the relative growth recovery was -2.83%.

As for `COc1ccc(NS(=O)(=O)c2ccc(NC(=O)c3ccccc3C(=O)O)cc2)nn1`, the relative growth recovery is 0.695%.

In the case of `O=C(CSc1nnc2c(n1)[nH]c1ccccc12)Nc1cccc(Cl)c1`, the relative growth recovery was -17.9%.

With `Cc1cc(C)nc(NS(=O)(=O)c2ccc(N3C(=O)c4ccccc4C3=O)cc2)n1`, the relative growth recovery is 1.18%.

As to `CC(=O)Nc1ccc(S(=O)(=O)Nc2cc(C)ccn2)cc1`, the relative growth recovery is 1.54%.

Take `CCCCc1cnc(Nc2cccc(C3CCN(C(=O)[C@@H]4CCCN4C(=O)OC(C)(C)C)CC3)n2)s1`: the relative growth recovery was -2.56%.

`O=C(O)CCCCCNc1cccc2c1C(=O)N(C1CCC(=O)NC1=O)C2=O` (stereo not drawn): the relative growth recovery came to 11.1%.

For `Cc1cc(C)nc(NS(=O)(=O)c2ccc(NC(=O)c3ncoc3-c3cccs3)cc2)n1`, the relative growth recovery stood at 3.04%.

Regarding `CCC(=O)N1CCCC1c1csc(Nc2ccccn2)n1` (stereo not drawn), the relative growth recovery is -6.07%.

As for `COc1ccc(/C=C/C(=O)Nc2ccc(S(=O)(=O)Nc3cc(C)nc(C)n3)cc2)cc1OC`, the relative growth recovery is -1.51%.

`Cc1cnc(Nc2cccc(C3CCN(C(=O)C45CC6CC(CC(C6)C4)C5)CC3)n2)s1`: the relative growth recovery is 1.16%.

Regarding `CN(CC(=O)N1CCOC(c2cccc(Nc3nccs3)n2)C1)Cc1ccccc1F` (stereo not drawn), the relative growth recovery came out at 3.1%.

For the compound `Cc1ccc(CCC(=O)Nc2ccc(S(=O)(=O)Nc3nc(C)cc(C)n3)cc2)cc1`, the relative growth recovery was -1.52%.
